# This is one part of the list.
# Target: T1, MBP-FoxP1dN (Mus musculus, UniProt P58462 326-579)
# T1 sequence: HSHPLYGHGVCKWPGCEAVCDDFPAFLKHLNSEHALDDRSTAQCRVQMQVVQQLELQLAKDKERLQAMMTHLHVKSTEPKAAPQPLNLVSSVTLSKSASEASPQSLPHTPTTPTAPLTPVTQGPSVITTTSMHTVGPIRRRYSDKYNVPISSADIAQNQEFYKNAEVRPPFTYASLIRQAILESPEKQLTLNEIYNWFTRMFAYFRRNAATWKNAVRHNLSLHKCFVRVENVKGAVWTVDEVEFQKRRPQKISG
# Experiment: PD-seq (MBP pull-down with sequencing); 20 mM Tris-HCl pH 7.5, 100 mM NaCl, 1.5 mM MgCl2, 0.4 uM protein, 0.1 uM dsDNA library, 30 min, room temperature, amylose pull-down; high values mean tight binding
# Details: protein: recombinant; tags: His6-MBP; chain copies: 2; dsDNA, one strand shown
# How it was run: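 The N-terminus-lacking fragment of mouse FoxP3 or FoxP1 carried a His6-MBP tag and was expressed in E. coli. At 0.4 µM it was incubated with 0.1 µM Klenow-filled degenerate double-stranded DNA library for 30 min at room temperature in Tris pH 7.5 buffer with NaCl and MgCl2, and complexes were caught on amylose resin, washed three times, released with proteinase K, PCR-barcoded and Illumina-sequenced. Binding is reads-per-million enrichment of pull-down over input with replicates pooled.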
row,Sequence,binding signal
1,GATGATTGTTCTCCCAGCTGATGAATTTTCCCCCTCGAGTAAACAAATTTTCCTAATCTTTCTGTTCAAGCGCCATCTAC,0.785 RPM ratio (pull-down/input)
2,GATGATTGTTCTCCCAGCTGATGAATTTCACGCATCGAGTAAACAAATTTTCCTAATCTTTCTGTTCAAGCGCCATCTAC,1.01 RPM ratio (pull-down/input)
3,GATGATTGTTCTCCCAGCTGATGAATTCCTAAGTTCGAGTAAACAAATTTTCCTAATCTTTCTGTTCAAGCGCCATCTAC,0.833 RPM ratio (pull-down/input)
4,GATGATTGTTCTCCCAGCTGATGAATTCAGAAGGTCGAGTAAACAAATTTTCCTAATCTTTCTGTTCAAGCGCCATCTAC,0.727 RPM ratio (pull-down/input)
5,GATGATTGTTCTCCCAGCTGATGAATTGTACTGTTCGAGTAAACAAATTTTCCTAATCTTTCTGTTCAAGCGCCATCTAC,1.09 RPM ratio (pull-down/input)
6,GATGATTGTTCTCCCAGCTGATGAATTTTGGATCTCGAGTAAACAAATTTTCCTAATCTTTCTGTTCAAGCGCCATCTAC,0.787 RPM ratio (pull-down/input)
7,GATGATTGTTCTCCCAGCTGATGAATTTTAGAGATCGAGTAAACAAATTTTCCTAATCTTTCTGTTCAAGCGCCATCTAC,0.867 RPM ratio (pull-down/input)
8,GATGATTGTTCTCCCAGCTGATGAATTCTCGAACTCGAGTAAACAAATTTTCCTAATCTTTCTGTTCAAGCGCCATCTAC,0.76 RPM ratio (pull-down/input)
9,GATGATTGTTCTCCCAGCTGATGAATTCCTGCGATCGAGTAAACAAATTTTCCTAATCTTTCTGTTCAAGCGCCATCTAC,0.876 RPM ratio (pull-down/input)
10,GATGATTGTTCTCCCAGCTGATGAATTTATGCTCTCGAGTAAACAAATTTTCCTAATCTTTCTGTTCAAGCGCCATCTAC,1.11 RPM ratio (pull-down/input)
11,GATGATTGTTCTCCCAGCTGATGAATTTAAACTATCGAGTAAACAAATTTTCCTAATCTTTCTGTTCAAGCGCCATCTAC,0.987 RPM ratio (pull-down/input)
12,GATGATTGTTCTCCCAGCTGATGAATTTGACTAGTCGAGTAAACAAATTTTCCTAATCTTTCTGTTCAAGCGCCATCTAC,0.816 RPM ratio (pull-down/input)
13,GATGATTGTTCTCCCAGCTGATGAATTATTATATTCGAGTAAACAAATTTTCCTAATCTTTCTGTTCAAGCGCCATCTAC,1.33 RPM ratio (pull-down/input)
14,GATGATTGTTCTCCCAGCTGATGAATTAGTATATTCGAGTAAACAAATTTTCCTAATCTTTCTGTTCAAGCGCCATCTAC,1.21 RPM ratio (pull-down/input)
15,GATGATTGTTCTCCCAGCTGATGAATTTAGGGCGTCGAGTAAACAAATTTTCCTAATCTTTCTGTTCAAGCGCCATCTAC,0.959 RPM ratio (pull-down/input)
16,GATGATTGTTCTCCCAGCTGATGAATTGCGGGGTTCGAGTAAACAAATTTTCCTAATCTTTCTGTTCAAGCGCCATCTAC,1.02 RPM ratio (pull-down/input)

row,Sequence,binding signal
1,GATGATTGTTCTCCCAGCTGATGAATTTCTTCTCTCGAGTAAACAAATTTTCCTAATCTTTCTGTTCAAGCGCCATCTAC,1.01 RPM ratio (pull-down/input)
2,GATGATTGTTCTCCCAGCTGATGAATTCTGTCATTCGAGTAAACAAATTTTCCTAATCTTTCTGTTCAAGCGCCATCTAC,1.08 RPM ratio (pull-down/input)
3,GATGATTGTTCTCCCAGCTGATGAATTGGGCGGCTCGAGTAAACAAATTTTCCTAATCTTTCTGTTCAAGCGCCATCTAC,0.76 RPM ratio (pull-down/input)
4,GATGATTGTTCTCCCAGCTGATGAATTCCGTACGTCGAGTAAACAAATTTTCCTAATCTTTCTGTTCAAGCGCCATCTAC,0.878 RPM ratio (pull-down/input)
5,GATGATTGTTCTCCCAGCTGATGAATTGGGATTGTCGAGTAAACAAATTTTCCTAATCTTTCTGTTCAAGCGCCATCTAC,1.02 RPM ratio (pull-down/input)
6,GATGATTGTTCTCCCAGCTGATGAATTCCGACAGTCGAGTAAACAAATTTTCCTAATCTTTCTGTTCAAGCGCCATCTAC,0.827 RPM ratio (pull-down/input)
7,GATGATTGTTCTCCCAGCTGATGAATTTTACTTGTCGAGTAAACAAATTTTCCTAATCTTTCTGTTCAAGCGCCATCTAC,0.907 RPM ratio (pull-down/input)
8,GATGATTGTTCTCCCAGCTGATGAATTGGAAAATTCGAGTAAACAAATTTTCCTAATCTTTCTGTTCAAGCGCCATCTAC,0.938 RPM ratio (pull-down/input)
9,GATGATTGTTCTCCCAGCTGATGAATTTCGCGTTTCGAGTAAACAAATTTTCCTAATCTTTCTGTTCAAGCGCCATCTAC,0.925 RPM ratio (pull-down/input)
10,GATGATTGTTCTCCCAGCTGATGAATTCAAAGTATCGAGTAAACAAATTTTCCTAATCTTTCTGTTCAAGCGCCATCTAC,0.966 RPM ratio (pull-down/input)
11,GATGATTGTTCTCCCAGCTGATGAATTCTCTGCTTCGAGTAAACAAATTTTCCTAATCTTTCTGTTCAAGCGCCATCTAC,0.882 RPM ratio (pull-down/input)
12,GATGATTGTTCTCCCAGCTGATGAATTACATAGCTCGAGTAAACAAATTTTCCTAATCTTTCTGTTCAAGCGCCATCTAC,1 RPM ratio (pull-down/input)
13,GATGATTGTTCTCCCAGCTGATGAATTTTGCTCCTCGAGTAAACAAATTTTCCTAATCTTTCTGTTCAAGCGCCATCTAC,0.907 RPM ratio (pull-down/input)
14,GATGATTGTTCTCCCAGCTGATGAATTGGGGTCCTCGAGTAAACAAATTTTCCTAATCTTTCTGTTCAAGCGCCATCTAC,0.772 RPM ratio (pull-down/input)
15,GATGATTGTTCTCCCAGCTGATGAATTCTCTCGGTCGAGTAAACAAATTTTCCTAATCTTTCTGTTCAAGCGCCATCTAC,0.774 RPM ratio (pull-down/input)
